This note sets out measurements from the supplement of paper PMC11417369.

The list shows a part of the results.

The subject of the assay is PF3D7_0420300 AP2 domain 1 (GST-tagged). Nature of the assay: gcPBM binding intensity (ln(normalized median fluorescence intensity)); higher = stronger DNA binding. The method, boiled down:
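After 1 h on an Agilent 4 × 180k array of primer-extended double-stranded 36-bp intergenic genomic probes and negative controls, bound GST-tagged P. falciparum DNA-binding domains were detected with Alexa488 anti-GST antibody and scanned at 488 nm. The domains had been expressed in E. coli, and binding took place in 1× PBS with 1% milk, 0.2 mg/ml BSA, 0.5% salmon testes DNA and 0.03% Triton X-100. Binding intensity is the highest Masliner-normalised natural-log median intensity across replicate spots of either probe orientation.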
With “TATTAATCTTTTTTTAAACAAAAAATTAAGCAAATT [CACACA_negctrl_site884]”, the “gcPBM binding intensity (ln)” value is 8.72.

For “AACTAATAAAAAAAAAGTACACAATATGTAAATAAC [XGTACX_site5263]”, the “gcPBM binding intensity (ln)” value is 9.76.

As for “AAGCGAATATATATCACACACAAAAAAATCAGACTA [CACACA_site2108]”, the “gcPBM binding intensity (ln)” value is 9.74. In the case of “AATTATTGTGAAGGGAAAACAAAAAAGTTTATAATT [CACACA_negctrl_site1337]”, the “gcPBM binding intensity (ln)” value amounted to 9.23. In the case of “AACAAATATATTAACACACAAACATATAAACCAATG [CACACA_site3970]”, the “gcPBM binding intensity (ln)” value was found to be 10. For “TATATATTATATATATGTACATACTTTTTACGTTCA [XGTACX_site2493]”, the “gcPBM binding intensity (ln)” value was determined as 9.3. Then “ACCACATTTTTTTTTGCATGTTGTTTAAAAAAAGGC [TGCATGCA_site137]”, with 9.01; and “AATTTTTTTCTCCAAGTGCATTAGAACATTAACGTA [GTGCAC_site9413]”, with 8.96. To “ATATATTTATGTATCACACACAAAAAAAAAAAATAA [CACACA_site255]” belongs 9.54; to “TATAAAAAATAATTATCATGAAATATATGATCATCA [TGCATGCA_negctrl_site137]”, 9.19; to “ATTATTATTTATATGATACACACGTACATATACGCA [CACACA_site3823]”, 9.3. To “TATATTTTTTATAAATGTACATGGATAGGCATAAAC [XGTACX_site8401]” belongs 9.52; to “TTAAAAAAAATATAATGTACTTGTAGAATTATATTT [XGTACX_site6220]”, 8.95; to “ATATGAATAAATAAAAGTACATACATAATGTATTAT [XGTACX_site5969]”, 9.34.

Turning to “TCAAAAATGAGTTACACACACACATATATATATATA [CACACA_site2229]”, the “gcPBM binding intensity (ln)” value was determined as 9.91. Then “AGTATATAAAATACTGTATCGATGGGGGAGGGCGCA [CACACA_negctrl_site1612]”, with 10.

“ACAAATAAATAAAAAACACACACAAATAAATAAATA [CACACA_site8708]”: the “gcPBM binding intensity (ln)” value worked out at 10.1. To “TAATAATAAAATATTTGTACATATAAAATATGGCTG [XGTACX_site7904]” belongs 9.2; to “AATATAATGCAATATACACACATATATTTCTCTTTT [CACACA_site7276]”, 9.49; to “AAGGAAATAATTAAATGTACAAAAAAAAAAAAAATT [XGTACX_site562]”, 9.4. In the case of “TACAAACAAACACATAGCAATATATGTTATCAAAAA [XGTACX_negctrl_site1]”, the “gcPBM binding intensity (ln)” value was found to be 9.37. To “ATATTTTTTTTTCTTTCGCACACGTGAAAGAATTTC [CACACA_site8636]” belongs 9.28; to “TTTTATGCTCAATTATTAAGAAATACTTTTTCTTCC [XGTACX_negctrl_site208]”, 8.92. For the sequence “AAAATAAAAATTAACTGTACATACATTATTCAAATT [XGTACX_site6106]”, the “gcPBM binding intensity (ln)” value worked out at 9.19. For the sequence “TCCTTATTTTGCAGGAGTACCATTTTTTAAAAATAC [XGTACX_site5968]”, the “gcPBM binding intensity (ln)” value amounted to 9.11. Regarding “AATAACAATTATAAAAGTACAGATTTTTATTTCTAA [XGTACX_site5746]”, the “gcPBM binding intensity (ln)” value was 9.1. Regarding “ACAATTACTTATTTTAATTTTTTTAATCTATTGATT [CACACA_negctrl_site967]”, the “gcPBM binding intensity (ln)” value came to 9.13.

Consider “TTTTTTTTGTTATGAACATGCAAATTAAAATATAAT [TGCATGCA_site954]”, for which the “gcPBM binding intensity (ln)” value was 8.86.

In the case of “CAACAATTTCGTCATACACACATTCAGAATATATAT [CACACA_site2370]”, the “gcPBM binding intensity (ln)” value was 9.53. To “TACTTTTCTTAAAGATGTACGTTTTAAAAATAAAAT [XGTACX_site14]” belongs 8.8. Then “TAAATACATAAAAATTGTACACATTGTTTTCTCTTT [XGTACX_site6435]”, with 9.29.

On to “TATAGTAATATTTGAAGTACAAAATTAAAATAAATA [XGTACX_site7634]”, for which the “gcPBM binding intensity (ln)” value is 9.37. As to “TTAAATAGCTGTAATTGTACAAATAAATACATAAAT [XGTACX_site3097]”, the “gcPBM binding intensity (ln)” value stood at 9.34. Take “TTATATAAGGTCTATATATAAATATTAATGATAAGG [TGCATGCA_negctrl_site354]”: the “gcPBM binding intensity (ln)” value is 9.06.

With “GGGAGGATATTTCACAGTACCCAGGAAATCTGCGGA [XGTACX_site2555]”, the “gcPBM binding intensity (ln)” value stood at 8.89. To “TAAATATATATATGGTGTACCATTTTGGGTTAATAT [XGTACX_site2706]” belongs 9.16. As to “TTAATATTTTGATGTGTACACATTAAAATAGTTTTA [CACACA_site5712]”, the “gcPBM binding intensity (ln)” value came out at 9.03. For “TATATTATTTTTTATTGTACTTAAAAATATTATTTG [XGTACX_site1443]”, the “gcPBM binding intensity (ln)” value came out at 9.09. Then “AGAAGTTTATCTTTTAGTACGCATAAAAAAAAAAAA [XGTACX_site2359]”, with 8.86; and “TATAAATAATTATATTGTACTCTTTATATTTTTCTT [XGTACX_site5335]”, with 9.24; and “AATAATATATAAGAAAGTACAAAAAAATAAAATAAA [XGTACX_site3302]”, with 9.59. Then “TTTTAATGAAATATCAAAAAAATTTATGATTTCAAA [GTGCAC_negctrl_site662]”, with 8.47; and “AAAAAGAAAAAACTTACACACATATATACACCCATG [CACACA_site8079]”, with 10.1; and “TTCTTTTTTTTTTTTTTTTTTTTATAGTACAAAAAA [TGCATGCA_negctrl_site450]”, with 8.91.

Take “ATATCAAATAGACAAACACACAAAGGAAGAGTGAAA [CACACA_site3921]”: the “gcPBM binding intensity (ln)” value is 9.86. To “ATCTATATTATTTCTACACACATATCTATAATATGT [CACACA_site7561]” belongs 9.75. In the case of “TTTTTTTTTTTGTGTGCATGTGCTAGGAAAGGTAGG [TGCATGCA_site330]”, the “gcPBM binding intensity (ln)” value came to 9.2. To “ATATATTTTGGGGACTTTTTAAAAAAGAAGTATTAA [TGCATGCA_negctrl_site337]” belongs 8.85; to TTTTTGTTAATAAGTATGCACTATCTCATTTTTGTA, 9.3; to “TTTCTATTACGAACGTGTACATACATTATTCTTAAA [XGTACX_site5816]”, 9.27.

As to “TAGAAAAAAATAGATGCATGCAATGAATGAATAATA [TGCATGCA_site14]”, the “gcPBM binding intensity (ln)” value was found to be 9.54. Then “GAGCATTACACATATACACACATATAAATAAACATA [CACACA_site7315]”, with 9.77; and “TAGTAGTATTCATCCAGTACATATAAATGTATAATA [XGTACX_site7552]”, with 9.24; and “CTATACTATGAAAAGTGTACGAATAGCTAGCTATTT [XGTACX_site5927]”, with 9.23. Then “GAGAAATTTATACATACACACATATAAATATTATAG [CACACA_site7819]”, with 9.6; and “CTTTGCATTACGAACATACACACAGAATAACTGAAA [CACACA_site3024]”, with 9.53.

For “TGTTATTATTAAGACACACACACAAAAAAAAAAAAA [CACACA_site1481]”, the “gcPBM binding intensity (ln)” value is 9.83.

In the case of “ACAATGATAGTGTAAAGTACATATATATAAAAAAAT [XGTACX_site5928]”, the “gcPBM binding intensity (ln)” value was determined as 9.69. To “TGAACTCATAGGAAAACACACATATGTGCAATATAT [CACACA_site6231]” belongs 9.47. As for “TTTATAATATGTTATACATGCAGGTACCTTTTTGTA [TGCATGCA_site746]”, the “gcPBM binding intensity (ln)” value came out at 9.19. To “ATTTATAATTTTTGAGCACACACAAGCATATATATA [CACACA_site8531]” belongs 9.56. As to “ATTAATAAAAGATAAAGTACAAATCGGAAAATGAAT [XGTACX_site7846]”, the “gcPBM binding intensity (ln)” value was 9.68. As for “TTTCAATGTGACACGTGTCCGTAAAATTACATAATT [XGTACX_site7073]”, the “gcPBM binding intensity (ln)” value stood at 9.1. To “TTGTTCATCTTTTTTTTTTTTTTTTTTTTTTAAATC [CACACA_negctrl_site191]” belongs 8.86; to “AAGATTAAACATTGCACACAGAAATATATTTTCTAT [CACACA_site2374]”, 9.44. In the case of “TATATTAACAAAATGGTGCAATAATTTCTATATTGT [GTGCAC_site9430]”, the “gcPBM binding intensity (ln)” value turned out to be 9.21.

For the sequence “TGTGTAAGCACATACAAACACACAACCTTATTTTTA [CACACA_site2187]”, the “gcPBM binding intensity (ln)” value was determined as 9.44. To “TTATTATATTAAAAGAGGACACATTTATTTTTTTTT [XGTACX_site1241]” belongs 9.01; to “AAAAAAAAAAAAAAAAAAAAAAAAAAAAATAAAAAA [CACACA_negctrl_site59]”, 9.21.

“AAAATATTTAATAGAAGTACACATGTATATATACAT [XGTACX_site8942]”: the “gcPBM binding intensity (ln)” value stood at 9.38. Then “TTTTGAATATATTAAATAAATTAAAAATCTACAAAC [GTGCAC_negctrl_site622]”, with 9.01; and “AGATCATAATATTATACACACATTATATATCTGTAA [CACACA_site4925]”, with 9.59. To “TAATAAATTCAAAACATAAAAAGGAAAAAAAAAAAA [CACACA_negctrl_site1330]” belongs 9.29. Then “TTATTATATACAAAATGTACACAGAATAATTTGAAT [XGTACX_site2314]”, with 9.29. Consider “ATATATATATATATATGTACATAATATATTATATAT [XGTACX_site924]”, for which the “gcPBM binding intensity (ln)” value is 9.05. As for “TTTTTTTTTTTTTTGGTGCAGTTCACATATTATATA [GTGCAC_site9996]”, the “gcPBM binding intensity (ln)” value is 9.11. Then “TTTTTTTTTTTTTGAACACACATTATTAATTTTTAT [CACACA_site308]”, with 9.29; and “ATATATTTTTTTTATACATGCAATGCATTTACGTTG [TGCATGCA_site565]”, with 9.22. Then “TTTTTTATATATTAGGAATTTATAAAATTAGAAGGT [GTGCAC_negctrl_site617]”, with 8.92; and “GTATTAATTTTAAGGTGTACGCAAAAAATTTAATTT [XGTACX_site718]”, with 9.09. Then “AACCAGTTGATGTGTACACATATAGTAATAATTTTA [CACACA_site5564]”, with 9.41; and “TGTATAAAAAGAAAAAATCGTATGTGTTATCAAAAA [GTGCAC_negctrl_site490]”, with 9.31; and “ACGATTCAAAGGGAATATAAAATATTATTATCTATA [CACACA_negctrl_site1739]”, with 8.99. Turning to “AATAGAATAATCCTTACACACACACCCACACGAATA [CACACA_site8053]”, the “gcPBM binding intensity (ln)” value was found to be 10. As for “AACCAATATGCGTATACACACATAAATATAAATATA [CACACA_site3780]”, the “gcPBM binding intensity (ln)” value came to 9.59. To “ACATATTGTAGATATTGTACATATTGTGTATATATT [XGTACX_site7620]” belongs 9.41. Then “AATATGGAATGAAATAACAATCGGGAGTATATTACC [CACACA_negctrl_site93]”, with 9.72.
